According to patent US20140219913A1 (AbbVie / Abbott, published 2014):

T1: Recombinant human B7-1/CD80 Fc chimera (Cat. 140-B1-100, R&D Systems) (human, UniProt P33681 35-242)
T1 construct: extracellular domain; also called B7-1 antigen; Fc part of the bought chimera not given; not described
T1 sequence (looked up): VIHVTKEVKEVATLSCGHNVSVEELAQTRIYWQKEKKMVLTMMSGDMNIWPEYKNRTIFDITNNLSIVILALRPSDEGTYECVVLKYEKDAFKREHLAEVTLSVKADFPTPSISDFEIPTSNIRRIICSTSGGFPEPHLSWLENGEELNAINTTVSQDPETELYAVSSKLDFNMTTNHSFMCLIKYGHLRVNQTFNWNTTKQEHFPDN

B1: RAB001 (other)
VH: [about 120 residues omitted]STKGPEVQLVQSGAEVKKPGASVKVSCKASGYTFTKYWLGWVRQAPGQGLEWMGDIYPGYDYTHYNEKFKDRVTLTTDTSTSTAYMELRSLRSDDTAVYYCARSDGSSTYWGQGTLVTVSS
VL: [about 120 residues omitted]VAAPDVLMTQTPLSLPVTPGEPASISCTSSQNIVHSNGNTYLEWYLQKPGQSPQLLIYKVSNRFSGVPDRFSGSGSGTDFTLKISRVEAEDVGVYYCFQVSHVPYTFGGGTKVEIKR
notes: rDVD-Ig with CTLA4 ECD on both heavy and light chains, N-terminal of the anti-PGE2 2B5.7 variable domains; also called RAB001H; RAB001L
B2: RAB002 (other)
VH: [about 120 residues omitted]STKGPEVQLVQSGAEVKKPGASVKVSCKASGYTFTKYWLGWVRQAPGQGLEWMGDIYPGYDYTHYNEKFKDRVTLTTDTSTSTAYMELRSLRSDDTAVYYCARSDGSSTYWGQGTLVTVSS
VL: DVLMTQTPLSLPVTPGEPASISCTSSQNIVHSNGNTYLEWYLQKPGQSPQLLIYKVSNRFSGVPDRFSGSGSGTDFTLKISRVEAEDVGVYYCFQVSHVPYTFGGGTKVEIKR
notes: rDVD-Ig with CTLA4 ECD on the heavy chain only; Human IgG1 constant region with L234A/L235A (EU) and human kappa constant region; also called RAB002H; RAB002L
B3: RAB003 (other)
VH: EVQLVQSGAEVKKPGASVKVSCKASGYTFTKYWLGWVRQAPGQGLEWMGDIYPGYDYTHYNEKFKDRVTLTTDTSTSTAYMELRSLRSDDTAVYYCARSDGSSTYWGQGTLVTVSS
VL: [about 120 residues omitted]VAAPDVLMTQTPLSLPVTPGEPASISCTSSQNIVHSNGNTYLEWYLQKPGQSPQLLIYKVSNRFSGVPDRFSGSGSGTDFTLKISRVEAEDVGVYYCFQVSHVPYTFGGGTKVEIKR
notes: rDVD-Ig with CTLA4 ECD on the light chain only; Human IgG1 constant region with L234A/L235A (EU) and human kappa constant region; also called RAB003H; RAB003L

Biological target: T1, Recombinant human B7-1/CD80 Fc chimera …
Assay: direct bind ELISA, coated recombinant human B7-1/CD80 Fc chimera
Protocol: Enzyme Linked Immunosorbent Assays (ELISA) to screen for antibodies that bind a desired target antigen were performed as follows. High bind ELISA plates (Corning Costar #3369, Acton, Mass.) were coated with 100 μL/well of 10 μg/ml of desired target antigen (R&D Systems, Minneapolis, Minn.) or desired target antigen extra-cellular domain/FC fusion protein (R&D Systems, Minneapolis, Minn.) or monoclonal mouse anti-polyHistidine antibody (R&D Systems #MAB050, Minneapolis, Minn.) in phosphate buffered saline (10×PBS, Abbott Bioresearch Center, Media Prep#MPS-073, Worcester, Mass.) overnight at 4° C. Plates were washed four times with PBS containing 0.02% Tween 20. Plates were blocked by the addition of 300 μL/well blocking solution (non-fat dry milk powder, various retail suppliers, diluted to 2% in PBS) for ½ hour at room temperature. Plates were washed four times after blocking with PBS containing 0.02% Tween 20.
One hundred microliters of 10 ng/mL goat anti-human IgG-FC specific HRP conjugated antibody (Southern Biotech #2040-05, Birmingham, Ala.) was added to each well of the desired target antigen plate or anti-polyHistidine antibody/Histidine tagged desired target antigen plate. Alternatively, one hundred microliters of 10 ng/mL goat anti-human IgG-kappa light chain specific HRP conjugated antibody (Southern Biotech #2060-05 Birmingham, Ala.) was added to each well of the desired target antigen/FC fusion plate and incubated for 1 hour at room temperature. Plates were washed 4 times with PBS containing 0.02% Tween 20.
One hundred microliters of enhanced TMB solution (Neogen Corp. #308177, K Blue, Lexington, Ky.) was added to each well and incubated for 10 minutes at room temperature. The reaction was stopped by the addition of 50 μL 1N sulphuric acid. Plates were read spectrophotometrically at a wavelength of 450 nm

Question: For B1, which EC50 is on record?
Answer: Its EC50 is 17.7 nM.

Question: With B2 as the binder, how does the EC50 read?
Answer: Its EC50 is 5.4 nM.

Question: How did the EC50 turn out when B3 was run?
Answer: The EC50 was 5.5 nM.
